Values of other authors in PMC13415951 (Journal of Experimental Botany, 2026).

Details: ref PubChem (https://pubchem.ncbi.nlm.nih.gov/, accessed September 2025); cited from earlier work

SMILES	XLogP3-AA
CC1=C[C@H]2O[C@@H]3[C@H](O)C[C@](C)([C@@]2(CO)[C@H](O)C1=O)[C@]31CO1 [DON, deoxynivalenol]	–0.7
CC1(C)CCC[C@]2(C)[C@@H]3[C@H]1[C@@H](O)[C@@]2(C)C[C@H]3O [CUL, culmorin]	3.3
